# “And” between values parts separate entries of the source, which are not always exact repeats. Equal values may be shown once. The shares of active, inactive and inconclusive entries below differ from those in the screen. For part of these data: Where the call is inconclusive, the potency comes from a doubtful curve fit. A structure can be active in one record and inactive in another. The source made the active and inactive calls. Unless noted, the call rests on the fitted dose curve; in most records, active means well fitted curve in the direction sought with a large enough effect in the repeat runs; inconclusive means weak or mixed curves; inactive means no such curve, though single readings can be large; an effect the other way counts as inactive or inconclusive.
# Tests used:
# [1] = qHTS RealTime-Glo MT Cell Viability Assay in HEK293 cells - 24 hour (AID 1224886); further: nearly all actives have a fitted effect of over 50% in size
# How it was run: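 Viability tracked continuously by luminescence as live cells reduce a prosubstrate for NanoLuc; HEK293 cells preincubated 5 h, compound-treated at 37 C, and read at 0, 8, 16, 24, 32 and 40 h.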
# [2] = qHTS RealTime-Glo MT Cell Viability Assay in HEK293 cells - 8 hour (AID 1224887); further: nearly all actives have a fitted effect of over 50% in size
# How it was run: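 HEK293 + NanoLuc + prosubstrate, 600 cells/well; 5 h, 37 C/5% CO2; compound 23 nL in DMSO by pintool; 37 C; luminescence read at 0, 8, 16, 24, 32 and 40 h time points.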
# [3] = target: Estrogen receptor (Homo sapiens) (UniProt P03372); test: qHTS assay to identify small molecule antagonists of the estrogen receptor alpha (ER-alpha) signaling pathway using the BG1 cell line in the presence of 0.1 nM 17-beta-estradiol (AID 1259244); further: nearly all actives have a fitted effect of over 50% in size
# Sequence of UniProt P03372 (P03372 whole entry, looked up): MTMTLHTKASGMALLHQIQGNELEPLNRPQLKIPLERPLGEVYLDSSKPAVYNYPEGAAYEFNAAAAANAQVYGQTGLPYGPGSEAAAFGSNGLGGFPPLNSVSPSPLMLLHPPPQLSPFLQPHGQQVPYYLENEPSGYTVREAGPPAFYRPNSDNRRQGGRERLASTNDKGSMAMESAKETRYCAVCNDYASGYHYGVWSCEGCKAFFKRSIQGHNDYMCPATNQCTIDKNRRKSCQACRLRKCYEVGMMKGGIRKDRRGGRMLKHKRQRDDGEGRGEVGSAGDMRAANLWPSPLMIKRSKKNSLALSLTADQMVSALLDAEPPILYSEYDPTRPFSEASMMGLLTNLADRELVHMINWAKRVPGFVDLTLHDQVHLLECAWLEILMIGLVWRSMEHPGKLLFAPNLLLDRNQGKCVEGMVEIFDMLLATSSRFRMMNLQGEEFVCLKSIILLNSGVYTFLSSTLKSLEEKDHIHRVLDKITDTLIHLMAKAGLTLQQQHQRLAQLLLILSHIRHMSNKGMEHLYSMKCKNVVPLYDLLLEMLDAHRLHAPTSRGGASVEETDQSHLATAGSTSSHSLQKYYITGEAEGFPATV
# How it was run: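 Compounds were tested against 0.1 nM (final) 17beta-estradiol in VM7Luc4E2 cells, which express full-length ER-alpha and an ERE-luciferase reporter; luminescence was recorded following 22 h exposure.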
# [4] = qHTS assay to identify small molecule antagonists of the sonic hedgehog signaling (Shh) pathway (AID 1259369; calls by dose curve; further: nearly all actives have a fitted effect of over 45% in size)
# How it was run: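 NIH/3T3 stable Gli1-Luc clone, 2,000 cells/well, 4hr settle; cpd + conditioned medium 24hr; Luc reagent 30min RT; luminescence.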
# [5] = target: Estrogen receptor beta (Homo sapiens) (UniProt Q92731); test: qHTS assay to identify small molecule antagonists of the estrogen receptor beta (ER-beta) signaling pathway (AID 1259378; active means well fitted inhibition curve with a large enough effect in the signal ratio in the repeat runs, not every such curve was filed as active; inconclusive means weak or mixed curves, or effect the other way; inactive means no such curve, though single readings can be large or run the other way; the % refers to the signal ratio; on activity, negative = inhibition: on the % scale 0 is the no-effect control and ±100 the full control effect); settings: ER-beta-UAS-bla HEK293T, beta-lactamase FRET ratio, 16 h; activity, negative = inhibition: at 92.4 µM (top of the series) unless noted
# Sequence of UniProt Q92731 (Q92731 whole entry, looked up): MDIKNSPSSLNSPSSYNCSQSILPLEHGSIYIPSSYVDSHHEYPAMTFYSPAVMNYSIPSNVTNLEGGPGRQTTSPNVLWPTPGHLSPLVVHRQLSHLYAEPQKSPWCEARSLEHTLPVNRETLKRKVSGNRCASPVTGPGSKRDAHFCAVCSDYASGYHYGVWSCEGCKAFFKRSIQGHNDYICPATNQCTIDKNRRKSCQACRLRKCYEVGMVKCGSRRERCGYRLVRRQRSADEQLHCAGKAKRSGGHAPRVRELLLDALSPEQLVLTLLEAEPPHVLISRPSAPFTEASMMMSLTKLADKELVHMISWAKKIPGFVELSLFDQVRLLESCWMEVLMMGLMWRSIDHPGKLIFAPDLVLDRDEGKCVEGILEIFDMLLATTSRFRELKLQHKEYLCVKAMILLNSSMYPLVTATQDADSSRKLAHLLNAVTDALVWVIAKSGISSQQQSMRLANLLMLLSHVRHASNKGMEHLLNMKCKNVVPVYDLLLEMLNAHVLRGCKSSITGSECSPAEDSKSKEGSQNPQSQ
# How it was run: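 ER-beta-UAS-bla HEK293T (GripTite) cells in 2% charcoal-stripped FBS medium were preincubated 6 hr at 37C, dosed with compound, then stimulated with 1 nM E2 (final) for 16 hr; beta-lactamase reporter read by B/G FRET fluorescence after 2 hr substrate loading.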
# [6] = A CellTox Green Cytotoxicity Assay to monitor cytotoxicity in HEK293 cells - 16 hour (AID 1224888); further: nearly all actives have a fitted effect of over 35% in size
# How it was run: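 Tox21 screen in HEK293: membrane-impermeant cyanine dye fluoresces on binding dead-cell DNA; compound pinned 5 h post-seeding, plates held at 37 C, signal read repeatedly through 40 h.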
# [7] = A CellTox Green Cytotoxicity Assay to monitor cytotoxicity in HepG2 cells - 8 hour (AID 1224890); further: nearly all actives have a fitted effect of over 45% in size
# How it was run: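 Measurements at 0, 8, 16, 24, 32 and 40 h of treatment captured CellTox Green fluorescence in HepG2 cells that had been co-plated with reagent and preincubated 5 h at 37 C/5% CO2.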
# [8] = qHTS assay to identify small molecule antagonists of the estrogen receptor alpha (ER-alpha) signaling pathway using the BG1 cell line in the presence of 0.1 nM 17-beta-estradiol - cell viability counter screen (AID 1259241); further: nearly all actives have a fitted effect of over 40% in size
# How it was run: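 VM7Luc4E2, 4,000 cells/well, phenol red-free medium + 10% charcoal-stripped FBS; 24 hr plating; cpd + 0.1 nM E2 final, 22 hr 37C/5% CO2; CellTiter-Fluor 30 min, fluorescence.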
# [9] = qHTS assay to identify small molecule agonists of the sonic hedgehog signaling (Shh) pathway - cell viability counter screen (AID 1259366); further: nearly all actives have a fitted effect of over 50% in size
# How it was run: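 Cytotoxicity counter screen run in the same wells as the Shh reporter assay. NIH/3T3 cells carrying a Gli1 response element–driven luciferase were treated with DMSO-dissolved compounds for 24hr, and live-cell protease activity was measured with CellTiter-Fluor.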
# [10] = target: Estrogen receptor beta (Homo sapiens) (UniProt Q92731); test: qHTS assay to identify small molecule agonists of the estrogen receptor beta (ER-beta) signaling pathway (AID 1259377; active means well fitted activation curve with a large enough effect in the signal ratio in the repeat runs, not every such curve was filed as active; inconclusive means weak or mixed curves, or effect the other way; the % refers to the signal ratio; on activation: on the % scale 0 is the no-effect control and ±100 the full control effect); settings: ER-beta-UAS-bla HEK293T, beta-lactamase FRET ratio, 16 h; activation: at 92.4 µM (top of the series) unless noted
# How it was run: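 HEK293T ER-beta-UAS-bla; 2% charcoal-stripped FBS; cells pre-incubated 6 hr, compound 16 hr, 37C/5% CO2; LiveBLAzer B/G FRET substrate 2 h RT; fluorescence intensity read.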
# [11] = qHTS assay to identify small molecule agonists of the androgen receptor (AR) signaling pathway in the presence of an antagonist - cell viability counter screen (AID 1259379); further: nearly all actives have a fitted effect of over 25% in size
# How it was run: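 MDA-kb2 viability measured by CellTiter-Fluor fluorescence in the same wells as the luciferase signal; nilutamide 3.0uM final; 15-point compound titration; 16 hr at 37C.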
# [12] = qHTS assay to identify small molecule antagonists of the androgen receptor (AR) signaling pathway using the MDA cell line in the presence of 0.5 nM R1881 - cell viability counter screen (AID 1259242); further: nearly all actives have a fitted effect of over 45% in size
# How it was run: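 Concentration-response screen of compounds for toxicity in MDA-kb2 reporter cells: 16 hr at 37C with 0.5 nM R1881, endpoint live-cell protease fluorescence measured in the reporter wells.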
# [13] = qHTS RealTime-Glo MT Cell Viability Assay in HepG2 cells - 0 hour (AID 1224889); further: nearly all actives have a fitted effect of over 50% in size
# How it was run: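 Viability was tracked continuously by NanoLuc luminescence from prosubstrate reduced by living HepG2 cells, at successive time points over 40 h of compound exposure. Cells with reagent were preincubated 5 h at 37 °C before compound addition.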
# [14] = qHTS assay to identify small molecule antagonists of the sonic hedgehog signaling (Shh) pathway - cell viability counter screen (AID 1259367); further: nearly all actives have a fitted effect of over 55% in size
# How it was run: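 Conditioned medium drove Shh signaling in 3T3 Gli1-Luc cells exposed to compounds at 37C and 5% CO2. Viability was determined from CellTiter-Fluor fluorescence, with reagent incubated 1 hr after 23 hr of treatment.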
# Potency means the concentration at half of the fitted maximal effect; tags describe the fitted curve by direction and shape or compound fluorescence and quenching.
smiles,measurement,setting,value
CCCCOCCOP(=O)(OCCOCCCC)OCCOCCCC,Potency,[1],"inconclusive: 55 µM [cytotoxic, single point]"
same,Potency,[2],inactive
same,Potency,[3],"inconclusive: 38.6 µM [inhibitor, partial curve, poor fit]"
same,Potency,[4],"inconclusive: 43.3 µM [inhibitor, partial curve, poor fit] and inconclusive: 27.3 µM [inhibitor, full curve]"
CCOC(=O)C(O)(c1ccc(Cl)cc1)c1ccc(Cl)cc1,Potency,[1],active: 22.1 µM and active: 34.7 µM
same,Potency,[2],"inconclusive: 34.7 µM [cytotoxic, partial curve]"
same,Potency,[3],"inconclusive: 61.8 µM [inhibitor, partial curve, poor fit]"
same,Potency,[5],active: 30.9 µM and active: 54.5 µM
O=C1C2CC=CCC2C(=O)N1SC(Cl)(Cl)Cl (stereo not given),Potency,[1],active: 43.5 µM and active: 3.41 µM
same,Potency,[2],"inconclusive: 17.3 µM [cytotoxic, partial curve, poor fit]"
same,Potency,[6],"inconclusive: 54.1 µM [activator, single point]"
same,Potency,[7],"inconclusive: 54.1 µM [activator, single point]"
same,Potency,[8],"inconclusive: 53.6 µM [cytotoxic, partial curve]"
same,Potency,[3],active: 26.9 µM
same,Potency,[9],active: 13.5 µM
same,Potency,[4],active: 2.69 µM
same,Potency,[10],active: 8.6 µM
same,activation,[10],inconclusive: -10.8%
same,Potency,[11],"inconclusive: 68.3 µM [cytotoxic, single point]"
Clc1ccc(COC(Cn2ccnc2)c2ccc(Cl)cc2Cl)cc1 (stereo not given),Potency,[1],"active: 18.2 µM and active: 21.8 µM and inconclusive: 19 µM [cytotoxic, partial curve]"
same,Potency,[2],"active: 20.4 µM and active: 21.8 µM and inconclusive: 10.7 µM [cytotoxic, partial curve]"
same,Potency,[6],"inconclusive: 45.7 µM [activator, partial curve, poor fit]"
same,Potency,[8],"inconclusive: 57 µM [cytotoxic, single point] and inconclusive: 68.3 µM [cytotoxic, single point]"
same,Potency,[12],"inconclusive: 50.8 µM [cytotoxic] and inconclusive: 60.9 µM [cytotoxic, single point]"
same,Potency,[9],"inconclusive: 26.6 µM [cytotoxic, single point]"
same,Potency,[4],"active: 11.4 µM and inconclusive: 24.2 µM [inhibitor, partial curve, poor fit] and inconclusive: 11.9 µM [inhibitor, partial curve, poor fit]"
same,Potency,[5],"inconclusive: 25.5 µM [cytotoxic, partial curve] and inconclusive: 30.5 µM [cytotoxic, partial curve] and active: 13.3 µM"
CCOC(=O)C(C)OC(=O)c1cc(Oc2ccc(C(F)(F)F)cc2Cl)ccc1[N+](=O)[O-] (stereo not given),Potency,[1],active: 30.7 µM and inactive
same,Potency,[2],"inconclusive: 38.9 µM [cytotoxic, partial curve]"
same,"activity, negative = inhibition",[5],inconclusive: -16.6% and inconclusive: -28.5%
O=P(O)(O)CN(CP(=O)(O)O)CP(=O)(O)O,Potency,[1],"inconclusive: 13.5 µM [rising, single point] and inconclusive: 54.9 µM [rising, single point]"
same,Potency,[2],"inconclusive: 13.5 µM [rising, single point] and inconclusive: 54.9 µM [rising, single point]"
same,Potency,[6],"inconclusive: 54.9 µM [activator, single point]"
same,Potency,[4],"inconclusive: 0.846 µM [inhibitor, single point]"
same,Potency,[5],inactive
CC(=O)C(Cl)(Cl)Cl,Potency,[1],"inconclusive: 21.1 µM [cytotoxic, full curve]"
same,Potency,[2],"inconclusive: 42.2 µM [cytotoxic, partial curve, poor fit]"
same,Potency,[13],"inconclusive: 23.7 µM [cytotoxic, partial curve]"
O=P(OCC(Br)CBr)(OCC(Br)CBr)OCC(Br)CBr (stereo not given),Potency,[1],"active: 27.9 µM and inconclusive: 46.5 µM [cytotoxic, single point]"
same,Potency,[2],"active: 24.9 µM and inconclusive: 52.2 µM [cytotoxic, single point]"
same,Potency,[12],"inconclusive: 69.5 µM [cytotoxic, single point]"
same,Potency,[3],"inconclusive: 69.5 µM [inhibitor] and inconclusive: 25.9 µM [inhibitor, partial curve]"
same,Potency,[14],active: 55.2 µM and inconclusive: 25.9 µM [cytotoxic]
same,Potency,[5],"inconclusive: 17.5 µM [inhibitor, full curve] and active: 23.1 µM"
same,Potency,[11],"inconclusive: 69.5 µM [cytotoxic, single point] and inconclusive: 65.1 µM [cytotoxic, single point]"
